In the supplement of paper PMC12230231 one finds enrichment data, which are given here for eight sequences.

± gives the standard deviation of the averaged measurements. Restriction of a single-cycle SIVsab GFP reporter by TRIM5α v1-loop variants in CRFK cells. Human variants: read share among cells still uninfected after two challenges over input, higher = gained restriction. Rhesus variants: share among infected cells over input, higher = lost restriction. Reporter dose not given per row. No active / inactive call per row; the paper calls a change when both replicates lie above its controls (mean + 2 SD of stop or wild-type variants, or the top frameshift score). Residues outside the varied loop are taken from Swiss-Prot. The paper reads the human single-substitution scores as noise; they and the rhesus combinations repeat poorly (rank correlation 0.3 to 0.4), indel scores repeat only for the top variants, rhesus substitutions well (0.9).

The data set relates to SIVsab (simian immunodeficiency virus of sabaeus monkeys), single-cycle GFP reporter, in CRFK cells. Nature of the data set: enrichment among infected cells over input (fold); higher = weaker restriction. As to conditions: library: human / rhesus combinations. As to the method: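 Pools of CRFK cells expressing variants of the TRIM5α v1 loop were challenged with the single-cycle reporter, sorted by GFP and sequenced; mean of two replicates.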
“MASGILLNVKEEVTCPICLELLTEPLSLHCGHSFCQACITANHKKSMLYKEGERSCPVCRISYQPENIQPNRHVANIVEKLREVKLSPEEGQKVDHCARHGEKLLLFCQEDSKVICWLCERSQEHRGHHTFLMEEVAQEYHVKLQTALEMLRQKQQEAEKLEADIREEKASWKIQIDYDKTNVSADFEQLREILDWEESNELQNLEKEEEDILKSLTKSETEMVQQTQYMRELISELEHRLQGSMMDLLQGVDGIIKRIENMTLKKPKTFHKNQRRVFRAPDLKGMLDMFRELTDARRYWVDVTLAPNNISHAVIAEDKRQVSSRNPQIMYGAPGTLFTFQSFTNFNYCTGVLGSQSITSGKHYWEVDVSKKSAWILGVCAGFQSDAMYNIEQNENYQPKYGYWVIGLQEGVKYSVFQDGSSHTPFAPFIVPLSVIICPDRVGVFVDYEACTVSFFNITNHGFLIYKFSQCSFSKPVFPYLNPRKCTVPMTLCSPSS [rhesus TRIM5α, 332-344 = GAPGTLFTFQSFT]”: the enrichment was 0.943 ± 0.099.

With “MASGILLNVKEEVTCPICLELLTEPLSLHCGHSFCQACITANHKKSMLYKEGERSCPVCRISYQPENIQPNRHVANIVEKLREVKLSPEEGQKVDHCARHGEKLLLFCQEDSKVICWLCERSQEHRGHHTFLMEEVAQEYHVKLQTALEMLRQKQQEAEKLEADIREEKASWKIQIDYDKTNVSADFEQLREILDWEESNELQNLEKEEEDILKSLTKSETEMVQQTQYMRELISELEHRLQGSMMDLLQGVDGIIKRIENMTLKKPKTFHKNQRRVFRAPDLKGMLDMFRELTDARRYWVDVTLAPNNISHAVIAEDKRQVSSRNPQIMYGAPGTLFTFQSFVNFNYCTGVLGSQSITSGKHYWEVDVSKKSAWILGVCAGFQSDAMYNIEQNENYQPKYGYWVIGLQEGVKYSVFQDGSSHTPFAPFIVPLSVIICPDRVGVFVDYEACTVSFFNITNHGFLIYKFSQCSFSKPVFPYLNPRKCTVPMTLCSPSS [rhesus TRIM5α, 332-344 = GAPGTLFTFQSFV]”, the enrichment came out at 0.712 ± 0.14.

In the case of “MASGILLNVKEEVTCPICLELLTEPLSLHCGHSFCQACITANHKKSMLYKEGERSCPVCRISYQPENIQPNRHVANIVEKLREVKLSPEEGQKVDHCARHGEKLLLFCQEDSKVICWLCERSQEHRGHHTFLMEEVAQEYHVKLQTALEMLRQKQQEAEKLEADIREEKASWKIQIDYDKTNVSADFEQLREILDWEESNELQNLEKEEEDILKSLTKSETEMVQQTQYMRELISELEHRLQGSMMDLLQGVDGIIKRIENMTLKKPKTFHKNQRRVFRAPDLKGMLDMFRELTDARRYWVDVTLAPNNISHAVIAEDKRQVSSRNPQIMYGAPGTLFTFQSLVNFNYCTGVLGSQSITSGKHYWEVDVSKKSAWILGVCAGFQSDAMYNIEQNENYQPKYGYWVIGLQEGVKYSVFQDGSSHTPFAPFIVPLSVIICPDRVGVFVDYEACTVSFFNITNHGFLIYKFSQCSFSKPVFPYLNPRKCTVPMTLCSPSS [rhesus TRIM5α, 332-344 = GAPGTLFTFQSLV]”, the enrichment was found to be 0.801 ± 0.2. For the sequence “MASGILLNVKEEVTCPICLELLTEPLSLHCGHSFCQACITANHKKSMLYKEGERSCPVCRISYQPENIQPNRHVANIVEKLREVKLSPEEGQKVDHCARHGEKLLLFCQEDSKVICWLCERSQEHRGHHTFLMEEVAQEYHVKLQTALEMLRQKQQEAEKLEADIREEKASWKIQIDYDKTNVSADFEQLREILDWEESNELQNLEKEEEDILKSLTKSETEMVQQTQYMRELISELEHRLQGSMMDLLQGVDGIIKRIENMTLKKPKTFHKNQRRVFRAPDLKGMLDMFRELTDARRYWVDVTLAPNNISHAVIAEDKRQVSSRNPQIMYGAPGTLFTFQTFTNFNYCTGVLGSQSITSGKHYWEVDVSKKSAWILGVCAGFQSDAMYNIEQNENYQPKYGYWVIGLQEGVKYSVFQDGSSHTPFAPFIVPLSVIICPDRVGVFVDYEACTVSFFNITNHGFLIYKFSQCSFSKPVFPYLNPRKCTVPMTLCSPSS [rhesus TRIM5α, 332-344 = GAPGTLFTFQTFT]”, the enrichment amounted to 1.26 ± 0.35. Under “MASGILLNVKEEVTCPICLELLTEPLSLHCGHSFCQACITANHKKSMLYKEGERSCPVCRISYQPENIQPNRHVANIVEKLREVKLSPEEGQKVDHCARHGEKLLLFCQEDSKVICWLCERSQEHRGHHTFLMEEVAQEYHVKLQTALEMLRQKQQEAEKLEADIREEKASWKIQIDYDKTNVSADFEQLREILDWEESNELQNLEKEEEDILKSLTKSETEMVQQTQYMRELISELEHRLQGSMMDLLQGVDGIIKRIENMTLKKPKTFHKNQRRVFRAPDLKGMLDMFRELTDARRYWVDVTLAPNNISHAVIAEDKRQVSSRNPQIMYGAPGTLFTFQTFVNFNYCTGVLGSQSITSGKHYWEVDVSKKSAWILGVCAGFQSDAMYNIEQNENYQPKYGYWVIGLQEGVKYSVFQDGSSHTPFAPFIVPLSVIICPDRVGVFVDYEACTVSFFNITNHGFLIYKFSQCSFSKPVFPYLNPRKCTVPMTLCSPSS [rhesus TRIM5α, 332-344 = GAPGTLFTFQTFV]” stands 1.1 ± 0.41; under “MASGILLNVKEEVTCPICLELLTEPLSLHCGHSFCQACITANHKKSMLYKEGERSCPVCRISYQPENIQPNRHVANIVEKLREVKLSPEEGQKVDHCARHGEKLLLFCQEDSKVICWLCERSQEHRGHHTFLMEEVAQEYHVKLQTALEMLRQKQQEAEKLEADIREEKASWKIQIDYDKTNVSADFEQLREILDWEESNELQNLEKEEEDILKSLTKSETEMVQQTQYMRELISELEHRLQGSMMDLLQGVDGIIKRIENMTLKKPKTFHKNQRRVFRAPDLKGMLDMFRELTDARRYWVDVTLAPNNISHAVIAEDKRQVSSRNPQIMYGAPGTLFTFQTLTNFNYCTGVLGSQSITSGKHYWEVDVSKKSAWILGVCAGFQSDAMYNIEQNENYQPKYGYWVIGLQEGVKYSVFQDGSSHTPFAPFIVPLSVIICPDRVGVFVDYEACTVSFFNITNHGFLIYKFSQCSFSKPVFPYLNPRKCTVPMTLCSPSS [rhesus TRIM5α, 332-344 = GAPGTLFTFQTLT]”, 1.36 ± 0.62; under “MASGILLNVKEEVTCPICLELLTEPLSLHCGHSFCQACITANHKKSMLYKEGERSCPVCRISYQPENIQPNRHVANIVEKLREVKLSPEEGQKVDHCARHGEKLLLFCQEDSKVICWLCERSQEHRGHHTFLMEEVAQEYHVKLQTALEMLRQKQQEAEKLEADIREEKASWKIQIDYDKTNVSADFEQLREILDWEESNELQNLEKEEEDILKSLTKSETEMVQQTQYMRELISELEHRLQGSMMDLLQGVDGIIKRIENMTLKKPKTFHKNQRRVFRAPDLKGMLDMFRELTDARRYWVDVTLAPNNISHAVIAEDKRQVSSRNPQIMYGAPGTLFTFQTLVNFNYCTGVLGSQSITSGKHYWEVDVSKKSAWILGVCAGFQSDAMYNIEQNENYQPKYGYWVIGLQEGVKYSVFQDGSSHTPFAPFIVPLSVIICPDRVGVFVDYEACTVSFFNITNHGFLIYKFSQCSFSKPVFPYLNPRKCTVPMTLCSPSS [rhesus TRIM5α, 332-344 = GAPGTLFTFQTLV]”, 0.927 ± 0.27. For “MASGILLNVKEEVTCPICLELLTEPLSLHCGHSFCQACITANHKKSMLYKEGERSCPVCRISYQPENIQPNRHVANIVEKLREVKLSPEEGQKVDHCARHGEKLLLFCQEDSKVICWLCERSQEHRGHHTFLMEEVAQEYHVKLQTALEMLRQKQQEAEKLEADIREEKASWKIQIDYDKTNVSADFEQLREILDWEESNELQNLEKEEEDILKSLTKSETEMVQQTQYMRELISELEHRLQGSMMDLLQGVDGIIKRIENMTLKKPKTFHKNQRRVFRAPDLKGMLDMFRELTDARRYWVDVTLAPNNISHAVIAEDKRQVSSRNPQIMYGAPGTLYQSLVNFNYCTGVLGSQSITSGKHYWEVDVSKKSAWILGVCAGFQSDAMYNIEQNENYQPKYGYWVIGLQEGVKYSVFQDGSSHTPFAPFIVPLSVIICPDRVGVFVDYEACTVSFFNITNHGFLIYKFSQCSFSKPVFPYLNPRKCTVPMTLCSPSS [rhesus TRIM5α, 332-344 = GAPGTLYQSLV]”, the enrichment is 0.648 ± 0.7.
